# Test results taken from PubChem BioAssay AID504832 (National Center for Advancing Translational Sciences (NCATS), 2011).
# The campaign covered roughly 310,000 compounds. About 18,000 (5.8%) were called active. Inconclusive results, whose numbers are uncertain, are shown with a selection of clear calls. Calls come from the whole dose curve; as a rule, active = well fitted inhibition curve with a large enough effect; inconclusive = small, poorly fitted or top-dose-only effect, or another doubt; inactive = no such curve, though single readings can be large or run the other way. Potencies of inconclusive entries are left out as doubtful fits.
# Test: Primary qHTS for delayed death inhibitors of the malarial parasite plastid, 48 hour incubation
# Settings: P. falciparum luciferase growth in erythrocytes; series mostly up to 28.7 µM; activity change, negative = inhibition: at the top concentration
# Outline: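 Cell-based growth assay: transgenic P. falciparum expressing firefly luciferase, cultured in red cells within RPMI 1640 containing 0.5% w/v Albumax, 24 mM bicarbonate and gentamycin. A drop in luciferase activity indicates inhibition.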
# % is set by controls: 0 for no effect and ±100 for the full control effect; potency is the fitted concentration of half-maximal effect; tags give direction and shape of the fitted curve.
SMILES,Potency,"activity change, negative = inhibition"
COc1ccc(Cl)cc1Nc1nc(-c2sc(NC(=O)c3ccccc3)nc2C)cs1,active: 1.85 µM,
COc1cc(C2C3CN(C)CC=C3C(C#N)=C(N)C2(C#N)C#N)ccc1OC(C)C (stereo unspecified),"inconclusive [inhibitor, single point]",
COC(=O)c1cnn(-c2ccc(C(=O)Nc3ccc(C(C)=O)cc3)cc2)c1N,active: 5.22 µM,
COc1ccc(CCNC(=O)CC(c2ccccc2)c2cc(C)ccc2O)cc1OC (stereo unspecified),"inconclusive [inhibitor, partial curve, poor fit]",
O=C(O)C(C(=O)Oc1ccccc1)C(C(=O)O)C(=O)Oc1ccccc1 (stereo unspecified),,inactive: -11%
NC1=NC[C@@H](Cc2ccc(O)cc2)N1CCCCC1CCCCC1,active: 1.85 µM,
Cc1c(Cc2ccccc2)c(=O)oc2c(C)c(OC(C)C(=O)NCC3CCC(C(=O)O)CC3)ccc12 (stereo unspecified),"inconclusive [inhibitor, full curve, poor fit]",
O=C(CCNC(=O)c1ccc(Cl)cc1)Nc1ccccc1N1CCCC1,"inconclusive [inhibitor, single point]",
CC1CCCN(c2ccc(C(=O)NCC3CCCO3)cn2)C1 (stereo unspecified),,inactive: 52.5%
O=C(c1ccco1)N1CCN(S(=O)(=O)c2ccc(C3CCCCC3)cc2)CC1,"inconclusive [inhibitor, single point]",
CCc1c(C)nc2ncnn2c1Nc1ccc(C)c(C)c1,"inconclusive [inhibitor, partial curve, poor fit]",
Cc1cc2c(NC(=O)Nc3ccc(C(C)(C)C)cc3)cccc2nn1,"inconclusive [inhibitor, partial curve]",
Cc1ccc(OCCNC(=O)c2ccccc2SCC(=O)N2CCCC2)cc1,"inconclusive [inhibitor, single point]",
Cc1ccc(Nc2nnc(-c3ccc4c(c3)OCO4)o2)c(C)c1,,inactive: 39.6%
Cc1ccc(N(C(=O)Cn2nnc3ccccc32)C(C(=O)NCc2ccco2)c2cccnc2)cc1 (stereo unspecified),active: 10.4 µM,
CC(C)n1ncc2c(C(=O)NCC(=O)Nc3ccccc3Br)cc(C3CC3)nc21,"inconclusive [inhibitor, single point]",
CC(C)C(c1nnnn1Cc1ccc(F)cc1)N1CCN(C2CCCCC2)CC1 (stereo unspecified),"inconclusive [inhibitor, full curve, poor fit]",
CN(C)c1nc(N(C)C)nc(N2CC(CCl)OC2=N)n1 (stereo unspecified),"inconclusive [inhibitor, partial curve, poor fit]",
CC1(C)NC(=O)N(CC(=O)N2CCCC(C(F)(F)F)C2)C1=O (stereo unspecified),"inconclusive [inhibitor, partial curve, poor fit]",
CCOc1ccc(OCCC(=O)Nc2cccc(S(=O)(=O)N3CCCC3)c2)cc1,"inconclusive [inhibitor, partial curve, poor fit]",
Cc1cn(C(=O)c2cccc(Br)c2)c(C)n1,"inconclusive [inhibitor, full curve, poor fit]",

SMILES,Potency,"activity change, negative = inhibition"
Cc1ccc(NC(=O)C(Cc2ccccc2)N2C(=O)C3C4CCC(C4)C3C2=O)cc1Cl (stereo unspecified),"inconclusive [inhibitor, single point]",
COC(=O)C1=C(N)Oc2cc(C)n(Cc3cccnc3)c(=O)c2C1c1ccccc1OC (stereo unspecified),"inconclusive [inhibitor, full curve, poor fit]",
CC1CCC(NC(=O)c2ccc(NC(=O)CC3SC(N4CCCC4)=NC3=O)cc2)CC1 (stereo unspecified),,inactive: 40.5%
CC1(C)Cc2cccc(C(=O)NC3CCN(Cc4ccccc4)CC3)c2O1,"inconclusive [inhibitor, full curve, poor fit]",
COc1ccccc1C(=O)N1CCN(c2nc3cc(C)c(C)cc3cc2C#N)CC1,"inconclusive [inhibitor, partial curve]",
O=C(Nc1ccc(N2CCCCC2)c(Cl)c1)c1ncn[nH]1,active: 0.465 µM,
Cc1cccc(Nc2nc(N)c([N+](=O)[O-])c(N3CC(C)CC(C)C3)n2)c1 (stereo unspecified),active: 13.1 µM,
CCOc1ccc(S(=O)(=O)N(CC(=O)N/N=C/c2cccs2)c2ccc(C)cc2)cc1,active: 13.1 µM,
COc1ccc(NC(=O)c2cc(-c3cc(OC)c(OC)c(OC)c3)nc3ccccc23)c(OC)c1,active: 5.22 µM,
Cc1ccc(C)c(NS(=O)(=O)c2ccc(NC(=O)c3ccco3)cc2)c1,active: 10.4 µM,
CCCCN(C(=O)c1sc2nc3n(c(=O)c2c1C)CCC3)c1c(N)n(CC(C)C)c(=O)[nH]c1=O,,inactive: -0.37%
CC12CCC(C(=O)N(CSC(=S)N/N=C\c3ccccc3O)C1=O)C2(C)C (stereo unspecified),active: 10.4 µM,
CC(Sc1n[nH]c(N)n1)C(=O)Nc1cccc2ccccc12 (stereo unspecified),"inconclusive [inhibitor, single point]",
COc1ccc(C(c2nnnn2C2CCCC2)N2CCC(C(N)=O)CC2)c(OC)c1 (stereo unspecified),"inconclusive [inhibitor, full curve, poor fit]",
COC(=O)C1=CO[C@@H](C)[C@H]2CN3CCc4c([nH]c5ccccc45)[C@@H]3C[C@H]12,"inconclusive [inhibitor, single point]",
O=C(Nc1nccs1)C1C2/C=C\CCCCC21 (stereo unspecified),"inconclusive [inhibitor, single point]",
O=C(N/N=C/c1c[nH]c2ccc(Br)cc12)c1ccn(Cc2ccc(Cl)cc2)n1,"inconclusive [inhibitor, partial curve, poor fit]",
C=CCN(Cc1nc(-c2ccccc2)no1)C(=O)c1ccoc1C,"inconclusive [inhibitor, partial curve, poor fit]",
COc1ccccc1Nc1ccc(S(=O)(=O)N2CCCCC2)cc1[N+](=O)[O-],"inconclusive [inhibitor, partial curve, poor fit]",
Cc1ccc(C)c(S(=O)(=O)N2CCC3(CC2)OCCN3S(=O)(=O)c2cccs2)c1,"inconclusive [inhibitor, single point]",
